The full ranking holds about 33,000 sequences; the median of “E-score (-0.5 to 0.5)” is about -0.054, and the highest 2% start at about 0.35. The list shows a part of the results.
What follows are sequences tested against T1, Stb5 (UniProt P38699) (assay: PBM E-score (8-mer binding enrichment) (E-score (-0.5 to 0.5)); higher = stronger / more preferred TF binding; most listed sequences are background and not binding sites). Details: protein concentration: 200 nM; construct: GST-full length.
T1 sequence: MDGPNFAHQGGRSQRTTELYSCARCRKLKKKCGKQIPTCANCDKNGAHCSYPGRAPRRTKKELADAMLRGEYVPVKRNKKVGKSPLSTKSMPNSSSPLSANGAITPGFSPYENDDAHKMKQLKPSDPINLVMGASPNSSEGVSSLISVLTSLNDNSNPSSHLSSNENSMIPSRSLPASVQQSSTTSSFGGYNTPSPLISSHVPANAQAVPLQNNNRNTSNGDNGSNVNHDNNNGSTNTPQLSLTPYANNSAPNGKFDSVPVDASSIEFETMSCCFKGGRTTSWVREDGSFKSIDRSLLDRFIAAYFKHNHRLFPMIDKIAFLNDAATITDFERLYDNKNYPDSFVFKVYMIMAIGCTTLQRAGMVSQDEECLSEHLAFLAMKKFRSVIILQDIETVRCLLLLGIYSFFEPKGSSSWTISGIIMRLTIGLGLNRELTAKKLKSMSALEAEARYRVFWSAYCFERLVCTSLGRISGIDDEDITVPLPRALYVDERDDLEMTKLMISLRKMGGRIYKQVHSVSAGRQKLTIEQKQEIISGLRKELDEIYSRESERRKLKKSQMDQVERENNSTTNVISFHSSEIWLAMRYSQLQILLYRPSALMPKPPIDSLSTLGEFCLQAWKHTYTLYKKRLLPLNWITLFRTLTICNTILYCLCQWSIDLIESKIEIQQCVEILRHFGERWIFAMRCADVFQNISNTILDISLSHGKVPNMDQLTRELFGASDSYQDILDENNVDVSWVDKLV
In short: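 Each ungapped eight-base word and its reverse complement, pooled, received an E-score from the Universal PBM Analysis Suite. Underlying scans, normalised with masliner, recorded fluorescent anti-GST bound to GST-tagged yeast transcription factors. These were applied at about 100-200 nM to universal all-10-mer Agilent arrays double-stranded by primer extension.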

Sequence	PBM E-score
AGCGGGGC	0.356
ATTAGCTG	-0.119
AAACATGC	-0.228
AGTAACGC	-0.00333
CCATAAGA	-0.0498
GAACTAGC	0.0562
CTCATGAG	-0.34
GCTTCAGA	-0.182
ATCCAAAA	-0.0416
CTTAAAAC	0.115
CATTAAAG	-0.133
CGCTAGAC	0.0457
CGCCGGCG	0.428
ACAACACC	0.197
AATCGGGT	0.132
CAGTCGTA	-0.0825
GAAGTACC	0.198
GTCTCGCA	-0.146
GAAATAGA	0.0305
GGCCCCCC	-0.0669
AAAGTACC	0.195
TATAGAAA	-0.0297
CCTCCGCG	0.157
AGACCGTC	0.252
ACATAGGC	-0.086

Sequence	PBM E-score
ATAGCCAC	-0.171
CTTCTACC	-0.133
CCGATGTA	0.242
CTGCGGGC	0.249
CTGCGGCC	0.218
GTTCGCAA	-0.133
ACTATAGT	-0.0208
AATATCAG	-0.00081
CTTGCCCA	-0.075
GACGGAAA	0.268
ACACGGGG	0.272
AGGAAACC	-0.0573
AGTCAGTG	-0.308
AGCAGCCT	-0.286
AAATTTCG	0.0172
GGGTAAAA	0.0855
CCGTAAAA	0.171
GCATTCGA	-0.145
CCCCCGCG	0.325
CAGCAAAA	-0.154
TCGTCTCA	-0.0724
CTCTTACC	0.063
CACCAACG	0.0702
AAAGCTAC	-0.102
CTCCTCTA	-0.102

Sequence	PBM E-score
AACGTTTC	-0.169
GGACGACA	-0.0763
GGTAGTGA	-0.0261
CGCAGAAA	-0.114
CAGTAAAG	-0.0298
CCGCGGAC	0.362
ATTGGCCC	0.0136
ATACTACA	-0.039
AACTTAAA	-0.119
CACCAGCG	-0.06
AATGAGAG	-0.228
AACACTGT	-0.22
CAGTTAGC	-0.144
AAACTGAG	0.014
AACGATCA	-0.245
GTGGCCGA	0.144
GTGGATTA	0.0199
AGCAGGAC	0.0795
CACTCAGA	-0.204
GATTCTCC	0.112
ATGACCGG	0.308
TATGTGGA	0.0363
AGTATTTC	0.00234
CCCCTGAC	-0.0846
CCCTTCAA	-0.0698

Sequence	PBM E-score
AAACTCGT	-0.156
AAATCGGT	0.273
TAGGAGAA	-0.261
ACTCGAGC	-0.134
AAGACAGT	-0.0774
AGTAGAAG	-0.231
ACAGGGGC	-0.0394
CCCCGAAC	0.285
CAGTGGTA	-0.159
AAGGGGAA	-0.188
GCACCCAC	-0.0635
ATAAGCGG	0.249
AATCTGGG	-0.147
AACAGACT	-0.168
AGCTAGGA	-0.226
ACTAGGAT	0.019
CCCGTACC	0.25
CTTCCCTA	-0.161
ACTCCAAA	-0.129
ACCATCCC	0.00047
AGTTGCCA	-0.15
CCTGTCGA	-0.237
CTGGTAAC	0.0464
AAAATGAG	-0.0189
AATGACGG	0.278

Sequence	PBM E-score
CACAGGGG	-0.176
CACTGTGC	-0.131
GGGGAAGA	-0.15
ATCGCTAG	-0.112
TGCGAACA	-0.0834
CTCCTCGC	-0.277
ATATGCGG	0.192
AGCCGCTC	0.216
AGCGCCAT	0.0179
ACGGAGTG	0.343
CAAGTACC	0.194
AGGTCGGC	0.293
AGATCCCT	-0.128
AACTCTAG	-0.33
AGCCGCTG	0.14
CACCTTCA	-0.0641
ACCCGTGA	-0.00082
CTGCTAAC	-0.215
ACCACACC	-0.0197
GGGACCCC	0.0378
AAGGAGGT	-0.0343
CGGACGCA	0.349
ATATTACG	-0.0127
CCACCCCA	-0.29
CATAAGTA	-0.0678

Sequence	PBM E-score
CAAACTGA	-0.0692
AATGGTAA	0.003
GAAATAAA	0.144
CGCCTGAG	0.0853
CGACCGCG	0.236
ACACACCT	-0.0405
GCACGGCC	0.196
ATGGGACA	-0.128
CATTAGAA	-0.132
ACTTACTC	-0.0763
ACTATGAT	-0.24
ACATTAGC	-0.083
CGCCTCGC	-0.0852
CGCCCGTA	0.167
ATTTATAG	-0.1
AATGATCG	-0.0487
AGCTTGTC	0.0933
ACCACGAG	-0.212
GAGACCAA	-0.0876
CTACAGCA	-0.0759
CAATGACA	-0.196
GCCTTTTA	0.0423
ACTAAAAA	0.158
GATCTTCA	0.0754
AATTAAGA	-0.00593

Sequence	PBM E-score
CTAGACAG	-0.0509
CGTTCTAG	-0.0907
ACTCCCAA	-0.18
CTCGAAAG	-0.0798
ACTAGTAC	-0.00152
CGATCACA	-0.028
GAGACATA	-0.0521
GCATTCAA	-0.174
GCTGTTGA	0.0206
CCCTAATA	-0.32
GTGTGCAA	-0.29
ACGATGAG	0.0342
AATATCGT	-0.0759
GTAGACCA	-0.297
CGTTTCAA	-0.0569
ATTGGATA	-0.192
TGCTAACA	-0.129
ATCTTATG	-0.0577
ACCTGGCA	-0.222
AAATTTCA	-0.344
ACTGGGTA	-0.0785
AGGGCAGG	-0.205
CGGGAGGA	0.062
GATGGCGA	0.0422
AGAATACA	-0.117

Sequence	PBM E-score
CAGGACAG	-0.143
ATCAAATC	-0.0341
GAGGCCAA	-0.254
AATTGAGA	-0.0963
CCGATTAC	0.224
TACCACTA	-0.3
AAGAAACA	-0.0428
ACCAGTAT	-0.123
GGGCACCC	-0.0767
GTAAAGAC	-0.0147
CCCTCAAA	-0.102
GTGAGAAC	-0.0202
CACTGAGC	-0.167
AGCAACCC	-0.0382
AGGGATCA	-0.136
ATTAATTC	0.137
AACGGGGT	0.373
AGAAAACA	-0.128
CGGAAACC	-0.00066
ACAAATGC	0.0256
AAAGGACA	-0.0867
GTCATGGA	-0.247
TAGCCGCA	0.187
CACCTATA	-0.141
GACGGTAA	0.294

Sequence	PBM E-score
AGACGTCG	-0.049
ACAAAGGA	-0.158
CTCCAATA	0.0678
CAATTAGG	0.0844
ATCGGCCG	0.249
GAAGCGAA	-0.235
ACATTCGT	-0.218
AGTATCGG	0.291
TCACACGA	-0.0813
ATGATTAA	-0.0447
ACAGACTG	-0.235
GCCCTGAC	-0.248
TACACTGA	-0.246
CCAAGTAC	0.0251
AACGAGAT	-0.108
AGGCCCTC	-0.16
GATTCTCA	-0.158
AGAACGTC	-0.263
AGGGACGC	-0.331

Source: the supplement of paper PMC3334620
